The values that follow come from the antibiotic and cytotoxicity screens of Wong et al. (2023).

The list shows a part of the results.

In the assay the test system is HSkMC (human skeletal muscle cells). The assay can be described thus: cytotoxicity call (relative viability < 0.9). The conditions noted are these: 10 µM.
As for `Cc1cc(C)c(N(Cc2ccccc2)S(=O)(=O)c2ccc(OCCNC(=O)c3cc4ccccc4o3)cc2)c(C(=O)NO)c1`, the cytotoxicity call is “active”.
The result for `C[C@H](CO)N1C[C@H](C)[C@@H](CN(C)C(=O)Nc2ccc3c(c2)OCO3)OCc2cn(nn2)CCCC1=O` reads “inactive”; that for `C[C@@H]1CN([C@@H](C)CO)C(=O)c2cc(C#CCN(C)C)cnc2O[C@H]1CN(C)Cc1cccc(C(=O)O)c1`, “inactive”.
For `COc1ccc(S(=O)(=O)N(C)C[C@H]2Oc3cc(C#CC4CC4)ccc3S(=O)(=O)N([C@@H](C)CO)C[C@@H]2C)cc1`, the cytotoxicity call is “inactive”.
The result for `O=C(O)C[C@@H]1CC[C@@H]2[C@H](COC[C@@H](O)CN2S(=O)(=O)c2ccc(F)cc2)O1` reads “inactive”.
In the case of `CO[C@@H]1CN(C)C(=O)c2cc(NS(=O)(=O)c3cn(C)cn3)ccc2OC[C@@H](C)N(CCC(F)(F)F)C[C@@H]1C`, the cytotoxicity call is “inactive”.
As to `CCOC(=O)[C@@H](N)Cc1ccc(O)c(O)c1`, the cytotoxicity call was “inactive”.
The result for `C[C@@H]1CCCCO[C@H](CN(C)Cc2ccc(Cl)c(Cl)c2)[C@@H](C)CN([C@H](C)CO)C(=O)c2cc(NS(=O)(=O)c3ccccc3)ccc2O1` reads “inactive”; that for `Cn1c[n+](NC(=O)c2ccc(C(=O)ON3C(=O)CCC3=O)cc2)cn1`, “inactive”.
Take `COc1ccc(CN(C)C[C@H]2OCCCC[C@@H](C)Oc3ccc(NC(=O)C4CCCCC4)cc3C(=O)N([C@@H](C)CO)C[C@@H]2C)cc1`: the cytotoxicity call was “inactive”.
The result for `C[C@@H]1CCCCO[C@@H](CN(C)Cc2ccc(C(F)(F)F)cc2)[C@@H](C)CN([C@@H](C)CO)C(=O)c2cc(NC(=O)Nc3ccc(C(F)(F)F)cc3)ccc2O1` reads “active”; that for `Cc1noc(C)c1S(=O)(=O)N(C)C[C@@H]1OCCCC[C@@H](C)Oc2ccc(NS(C)(=O)=O)cc2C(=O)N([C@@H](C)CO)C[C@@H]1C`, “inactive”.
The result for `Cc1ccc(S(=O)(=O)N(C)C[C@@H]2Oc3ccc(NC(=O)NC(C)C)cc3CC(=O)N([C@@H](C)CO)C[C@@H]2C)cc1` reads “inactive”.
Consider `C[C@H](CO)N1C[C@H](C)[C@H](CN(C)Cc2ccc(C(F)(F)F)cc2)Oc2ccc(NC(=O)Cc3cn(C)c4ccccc34)cc2C1=O`, for which the cytotoxicity call was “inactive”.
The result for `CC(=O)N(C)c1nc(N)n(-c2ccccc2)n1` reads “inactive”; that for `Cc1noc(C)c1S(=O)(=O)N(C)C[C@@H]1Oc2c(NS(=O)(=O)c3cccs3)cccc2C(=O)N([C@H](C)CO)C[C@@H]1C`, “inactive”.
The result for `COc1cc(/C=C/C(=O)N2CCC=CC2=O)cc(OC)c1OC(=O)CCCCCCCCCCC(=O)Oc1c(OC)cc(/C=C/C(=O)N2CCC=CC2=O)cc1OC` reads “inactive”; that for `CC(C)NC(=O)Nc1ccc2c(c1)C(=O)N([C@@H](C)CO)C[C@@H](C)[C@@H](CN(C)S(C)(=O)=O)OCCCC[C@@H](C)O2`, “inactive”.
As for `C[C@@H]1CCCCO[C@H](CN(C)C(=O)CCC(F)(F)F)[C@H](C)CN([C@@H](C)CO)C(=O)c2cc(NS(=O)(=O)c3cccs3)ccc2O1`, the cytotoxicity call is “inactive”.
As to `Nc1ccc(S(=O)(=O)NC(=O)c2ccccc2)cc1`, the cytotoxicity call was “inactive”.
Turning to `C[C@@H]1CN([C@@H](C)CO)C(=O)c2cc(NC(=O)Nc3ccc(F)cc3)ccc2O[C@@H](C)CCCCO[C@@H]1CN(C)Cc1ccccc1`, the cytotoxicity call is “inactive”.
Regarding `C[C@H]1CN([C@@H](C)CO)C(=O)Cc2cc(NC(=O)Cc3cn(C)c4ccccc34)ccc2O[C@H]1CN(C)C(=O)Nc1ccc(C(F)(F)F)cc1`, the cytotoxicity call was “inactive”.
The result for `C[C@H]1CN([C@@H](C)CO)C(=O)c2cccc(NC(=O)NC3CCCCC3)c2O[C@@H]1CN(C)Cc1ccc(Cl)c(Cl)c1` reads “inactive”; that for `C[C@H](CO)N1C[C@H](C)[C@@H](CN(C)C(=O)Nc2ccc(C(F)(F)F)cc2)Oc2ccc(NS(=O)(=O)c3ccc(Cl)cc3)cc2C1=O`, “inactive”; that for `Cc1ccnc(NC(=O)Cn2cnc3c2c(=O)n(C)c(=O)n3C)c1`, “inactive”.
The result for `Cn1cccc1CNCCCN1CCOCC1` reads “inactive”; that for `CC(C)(Oc1ccc(C2CC2(Cl)Cl)cc1)C(=O)O` (centres undefined), “inactive”; that for `COC(=O)CCc1c(c/2[nH]c1/C=C/1\N=C(/C=C/3\N=C(/C=C/4\N/C(=C2)[C@]2(C)[C@H](C(=O)OC)C(=CC=C42)C(=O)OC)C(=C3C=C)C)C(=C1CCC(=O)O)C)C`, “active”.
The result for `C[C@@H]1CN([C@@H](C)CO)C(=O)Cc2cc(NC(=O)CCN3CCOCC3)ccc2O[C@@H]1CN(C)S(=O)(=O)c1cn(C)cn1` reads “inactive”; that for `C[C@@H]1CN([C@@H](C)CO)C(=O)CCCn2cc(nn2)CO[C@@H]1CN(C)S(=O)(=O)c1ccc(-c2ccccc2)cc1`, “inactive”.
As for `CC(C)NC(=O)N(C)C[C@@H]1Oc2ccc(NC(=O)Cc3ccccc3)cc2CC(=O)N([C@@H](C)CO)C[C@@H]1C`, the cytotoxicity call was “inactive”.
`N=C(N)c1ccc2nc(-c3cc(CC(=O)N[C@@H](CC(=O)O)C(=O)O)cc(-c4cc(S(N)(=O)=O)ccc4O)c3O)[nH]c2c1`: the cytotoxicity call was “inactive”.
With `C[C@@H]1CCCCO[C@@H](CN(C)C(=O)Nc2ccc(F)cc2)[C@H](C)CN([C@H](C)CO)C(=O)c2cc(NC(=O)c3ccccc3)ccc2O1`, the cytotoxicity call was “inactive”.
Regarding `NNC(=O)Cn1nnc(N2CCCC2)n1`, the cytotoxicity call was “inactive”.
For the compound `CC1(C)C(=O)NCCN1C(=O)Cc1ccccc1`, the cytotoxicity call is “inactive”.
On to `COc1ccccc1NC(=O)N(C)C[C@H]1Oc2cc(Br)ccc2S(=O)(=O)N([C@H](C)CO)C[C@@H]1C`, for which the cytotoxicity call was “inactive”.
The result for `O=C(C[C@H]1CC[C@@H]2[C@H](COC[C@@H](O)CN2C(=O)c2cccnc2)O1)NCC1CC1` reads “inactive”.
`COCCNC(=O)C[C@@H]1CC[C@H]2[C@@H](COC[C@@H](O)CN2S(=O)(=O)c2ccccc2C)O1`: the cytotoxicity call was “inactive”.
Consider `C[C@@H]1CN([C@@H](C)CO)C(=O)Cc2cc(NC(=O)CCN3CCOCC3)ccc2O[C@H]1CN(C)S(=O)(=O)c1ccc(Cl)cc1`, for which the cytotoxicity call is “inactive”.
